From paper PMC12136788
Some of the results follow.

T1: UNK ZnF1-3 (human, UniProt Q9C0B0 31-174)
T1 sequence: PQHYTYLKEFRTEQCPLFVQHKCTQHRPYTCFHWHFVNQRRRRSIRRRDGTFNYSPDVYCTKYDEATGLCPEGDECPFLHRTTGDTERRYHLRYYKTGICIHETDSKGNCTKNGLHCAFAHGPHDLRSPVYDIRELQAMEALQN

B1: chr11:77336104:77336105:-_ENSG00000074201_ENST00000525064|hu_mus|hu_hu_hu_mus_False|58_68 (ssRNA)
RNA: GGGAGUUCUACAGUCCGACGAUCCUCACACAUUGCUGUGAACAUCGCCUCCAAUGCUGACUUAUCACUAGGCACAAAUCUAAAUUCAGAAAUGGGUUCAACAUCAUCAUUGUCUUCCUCAUCUUCAUCAGAGAGAGGUUCUUUCAACAGAGGAUUGAGCAUCA
B2: chr4:17845017:17845018:+_ENSG00000109805_ENST00000514176|hu_mus|hu_hu_hu_mus_False|58_88 (ssRNA)
RNA: GGGAGUUCUACAGUCCGACGAUCGCUCUCUUAACUUGUAUCUUCAUGAGAAAUUGGUGCAAGGUUAAGUUUACUUUUUCUAGUGCUAGCUGUUUUGGCUCGUCUGGGUAAUCUCAUCUUCAUUUCUGAUGGUGGUUCAUGAUCCAACAGAGGAUUGAGCAUCA
B3: chr5:128440902:128440903:+_ENSG00000066583_ENST00000173527|hu_mus|hu_hu_hu_mus_True|8_108 (ssRNA)
RNA: GGGAGUUCUACAGUCCGACGAUCUUGAACCGUGCUCCCAAGUCCUUUGGGGUAUUGUUCCGUUAUGAUAACUGGAAUCCCUAAGAUCCGAGCUCCUUGCAACAGUCUCUGUCCCACACUAAUGAUGUCCCCAAAAUAUUUGAUCAACAGAGGAUUGAGCAUCA
B4: 124116895_124118113_260_CDS_ENSG00000111361_ENST00000424014|human|control|control (ssRNA)
RNA: GGGAGUUCUACAGUCCGACGAUCAUCUCUCUUCAAGAACUCCAGCAACGUCCGGAUGGCAGCCACUGCUGAGGCCAUGUCAGGAUCUUCUUUCAUCUGAGACUUAAAGUAUUCAAUUAACUCCUUGUCGUCCAUGGCGUCCUCCAACAGAGGAUUGAGCAUCA
B5: chr10:33190432:33190433:-_ENSG00000150093_ENST00000302278|hu_mus|hu_hu_hu_mus_True|18_48 (ssRNA)
RNA: GGGAGUUCUACAGUCCGACGAUCUACAUUUUCCAAACCUGCAUGUGAAUAAAACCCUGGCCACAGAGCCCCAAAACUACCCUACUGUGACUAUGGAGCUGCUGCUGUGAGCUUGGUUGUUGUGGGACCGCCUGAGUAGGAUUCCAACAGAGGAUUGAGCAUCA
B6: chr7:107985766:107985767:+_ENSMUSG00000029461_ENSMUST00000049053|mus_mus|motif|central (ssRNA)
RNA: GGGAGUUCUACAGUCCGACGAUCAUCCCUAGCAAAAUUUUUGUAGGUAAAAUGCCAGUAGUAGGACGGCUGCAUUUAAUGCGGAUUUACAGUGAGGUUCAGAGAAGUCCUUUCUGCUUCUCUGGGCCUCAGUUUCCUCAUCUGCAACAGAGGAUUGAGCAUCA
B7: chr6:143133109:143133110:+_ENSMUSG00000030275_ENSMUST00000032413|mus_hu|motif|central (ssRNA)
RNA: GGGAGUUCUACAGUCCGACGAUCUUUGGGGAUCCAGCCAUUGUGUGCAUGAAUAGCAUGGAUUUUAGCAAGCUGACGAGCGGUUAGCCUGAAAAUGGCUGGGUUGCAGACAUGCUUUGGAUCCAGUGCUUCUCCUUGUAUAAACAACAGAGGAUUGAGCAUCA
B8: chr9:108469239:108469240:-_ENSMUSG00000070283_ENSMUST00000074208|mus_mus|motif|central (ssRNA)
RNA: GGGAGUUCUACAGUCCGACGAUCCAGCCGGUCGACGUGCCGACAGAGCGGCGCAGGUCGCGUUCGGAAAAGGCAGCGAAAUCCGGGAGCAGUAGCCAUGGCUGCAACGGCGCUUAACGACCCGGUCGUAGGGACAGAGUUGUCCAACAGAGGAUUGAGCAUCA
B9: 29300206_29322573_937_3pUTR_ENSMUSG00000032740_ENSMUST00000040182|mouse|control|control (ssRNA)
RNA: GGGAGUUCUACAGUCCGACGAUCGCAAUGGCAUCAUAAUCAACUGCUGCAAAGUCUCCUGAUAAUAAAAUUUUAUCUGUUUCACCAAAAUGGACAGAUUGUGAAUUCUAAGGGAAGCAUCAUUGUUGACUUUUUUAUUUACUCCAACAGAGGAUUGAGCAUCA
B10: 78014774_78015461_2047_3pUTR_ENSMUSG00000009828_ENSMUST00000044551|mouse|control|control (ssRNA)
RNA: GGGAGUUCUACAGUCCGACGAUCGUGUGAAAGAAAGGCCUCCCCGGGUGAGGUCUCACGGCCUUGAGGGAAGAGUAGCCGGGGGGAGGGGCUGCGAGGGGCGCCAGCUGAACCCUCUGCAUGACAGAACCGAUUUCCUUUUUCCAACAGAGGAUUGAGCAUCA
B11: chr14:76904430:76904431:+_ENSMUSG00000022010_ENSMUST00000022587|mus_mus|mus_mus_mus_hu_True|88_108 (ssRNA)
RNA: GGGAGUUCUACAGUCCGACGAUCUGCUGGAAAAAAAACCCUCGUGGCGGGAGGGAGGGAACACCAGCAGCCUUGUAUAAGCUAGAUAAAAUCUUCUGGCUUUCCGCAGCCCAGGGAGAAACAGAAAACGGCAGCCCUAAUUUACAACAGAGGAUUGAGCAUCA
B12: chr12:55961067:55961068:-_ENSMUSG00000062929_ENSMUST00000078124|mus_hu|FALSE|FALSE (ssRNA)
RNA: GGGAGUUCUACAGUCCGACGAUCCUAAUUUAUCCAGAGAACAAAUCAGAUAUUGAAAAGUAUUUAUGCCAAAGUGCAAAAAAUAAUUUCUGAUCUUCAUAUUAACACAUAGGAAAUAAAUACACUAAUGUUUAUAAAAGUACCCAACAGAGGAUUGAGCAUCA
B13: chr11:21048517:21048518:+_ENSMUSG00000020134_ENSMUST00000093290|mus_mus|FALSE|FALSE (ssRNA)
RNA: GGGAGUUCUACAGUCCGACGAUCAACCCAAUCACUUAGCUUAUAAACUUACAAUGCAGUCCUGGAGGACAGCUGCUAGUCUAAAGGUCCUUGGAAAAUAAGUCUGAUAUAGCCUUGUUCACCAGCCAACUGAUGUGCACAGAACAACAGAGGAUUGAGCAUCA
B14: 176118189_176132103_288_CDS_ENSG00000143207_ENST00000367666|human|control|control (ssRNA)
RNA: GGGAGUUCUACAGUCCGACGAUCUAGUUGGGCUGCAUGUGAUUCUGCUUCCAGUUGUUUCUUCUUCUGCACUAGUAACUCCAACAUAAGAUUGACAUUGGCCAAAUCAAGGUUAUCUUGGUCAGUUCCCAACCAAUCUUGAAACAACAGAGGAUUGAGCAUCA
B15: chr3:9412954:9412955:+_ENSG00000134077_ENST00000452837|hu_mus|hu_hu_hu_mus_False|8_78 (ssRNA)
RNA: GGGAGUUCUACAGUCCGACGAUCGGUUGAUAUCUCUUCUUUGAUGGCUGGAUUUUCAUAAUAAUCUAAGAUAUGUGAAUCUGAAGUGCUGCUGGCAUGCUUUUUCUUACCAUCUUUCUCAUCUGCUUUGACUUCUUGUCCACACAACAGAGGAUUGAGCAUCA
B16: chr7:7679991:7679992:-_ENSG00000106399_ENST00000396682|hu_hu|hu_hu_hu_mus_False|8_58 (ssRNA)
RNA: GGGAGUUCUACAGUCCGACGAUCUGGGAUGAAUCUUUUCCAGCUUCCCCACGAAGCACACGGGCCGGUCGAUAUACUGAGCUAGCAUGCUGGCGUUGACGCGCGCUUUGGGGAGCUGCAUUAUGUCCACCAUGAUUCUGCCGCCAACAGAGGAUUGAGCAUCA
B17: chr11:122930651:122930652:-_ENSG00000109971_ENST00000227378|hu_mus|FALSE|FALSE (ssRNA)
RNA: GGGAGUUCUACAGUCCGACGAUCGUUGUCAAAAUCUUCUCCACCUAAGUGGGUGUCUCCAGCUGUUGAUUUGACCUCAAAAAUUCCAUCCUCAAUAGUGAGGAUUGACACAUCAAAAGUGCCACCUCCCAAGUCAAAAAUGAGCAACAGAGGAUUGAGCAUCA
B18: chr5:136386016:136386017:-_ENSMUSG00000051391_ENSMUST00000055808|mus_hu|FALSE|FALSE (ssRNA)
RNA: GGGAGUUCUACAGUCCGACGAUCUUCUCUCAAGAGGAUUAAUAAUUUUGGUGGUGGAUUUACGUUAAGAGGAAAGAAGGACCAAAAAAAAAAAAUCCCACAGCCACCUGACCUGAAGUCGCUUUCAUUCUCAUUUAGCCUAGGCAACAGAGGAUUGAGCAUCA
B19: 74707188_74715441_250_3pUTR_ENSMUSG00000024067_ENSMUST00000112571|mouse|control|control (ssRNA)
RNA: GGGAGUUCUACAGUCCGACGAUCUUUUCGACUAUUCUCUCAACGCUGUCUGUGAGCCCGUACUCAGAGUGAGGGUUUUCUGCAACCUGUGUCUGUCCCUCCAGCAUCUGCUCCGACUCCAUGGCGGACCCUGCAAACCGCAAUCAACAGAGGAUUGAGCAUCA
B20: chrX:98862621:98862622:+_ENSMUSG00000034160_ENSMUST00000044475|mus_hu|mus_mus_mus_hu_False|28_28 (ssRNA)
RNA: GGGAGUUCUACAGUCCGACGAUCCUGCAUCUCCUUUAGAGUGUUUCCCAUAUUAGAGUAGGCAUCAGCAAAGGUAGGACUGAUUCGAAUAGCCUCCUUAUAAUGCAUCAGUGCUUCCUGCAGUUUUCCCUGCUGCUGCAGUACCAACAGAGGAUUGAGCAUCA
B21: chr6:108533379:108533380:-_ENSG00000112335_ENST00000426155|hu_hu|FALSE|FALSE (ssRNA)
RNA: GGGAGUUCUACAGUCCGACGAUCGCCCCUUCUUGCCAAAUUUCAGGCAUGUCUUAUUUUAGAUGGAGUAUAGCUUUUAUCUAUUAUUUCAUCUUGUAAAAACAUGUGAAGACAACGUUCGUUCUGUGCCAGAGGAUGACCAGCCAACAGAGGAUUGAGCAUCA
B22: chr5:135513207:135513208:+_ENSG00000113658_ENST00000545279|hu_mus|motif|central (ssRNA)
RNA: GGGAGUUCUACAGUCCGACGAUCCCAUGUCAGCUCACAGCAUCUGUACUGGAAAUUCCUCUAAAAUUAAAACAAGUCCACGGAAAAUAUAGUUGAAAGAAUACUUCUGCACUAUGAAACAGAAGAAAUGGGGUUCAGCGGAGACAACAGAGGAUUGAGCAUCA

These binders were tested against T1, UNK ZnF1-3 (assay: nsRBNS (natural sequence RNA bind-n-seq); RBNS binding buffer (assumed for nsRBNS): 25 mM Tris pH 7.5, 150 mM KCl, 3 mM MgCl2, 0.01% Triton X-100, 500 ug/ml BSA, 20 U/ml SUPERase-In, 4 C; UNK is unkempt and MSI1 is Musashi-1; names of the RNAs are library labels; protein concentration not given here; high values mean tight binding).
B1 was tested, and the binding signal was 1.02 enrichment R. For B2, the binding signal was 0.346 enrichment R. B3 was tested, and the binding signal was 0.757 enrichment R. B4 showed a binding signal of 0.88 enrichment R. In the case of B5, the binding signal is reported as 1.02 enrichment R. Work on B6 yielded a binding signal of 0.463 enrichment R. For B7, the binding signal was 0.564 enrichment R. B8 was tested, and the binding signal was 0.666 enrichment R. Work on B9 yielded a binding signal of 1.37 enrichment R. Binder B10 has a binding signal of 0.887 enrichment R. With B11 the binding signal was 1.86 enrichment R. Work on B12 yielded a binding signal of 1.41 enrichment R. Binder B13 has a binding signal of 1.45 enrichment R. Work on B14 yielded a binding signal of 0.814 enrichment R. B15 showed a binding signal of 0.48 enrichment R. For B16, the binding signal was 0.482 enrichment R. Binder B17 has a binding signal of 1.45 enrichment R. B18 was tested, and the binding signal was 1.69 enrichment R. With B19 the binding signal was 0.515 enrichment R. For B20, the binding signal was 1.04 enrichment R. B21 showed a binding signal of 1.03 enrichment R. Binder B22 has a binding signal of 2.14 enrichment R.
